Results on 2 molecules are retold here after patent US20030091584A1.

The assay deals with RSV F protein (immobilized on the BIAcore sensor chip) (respiratory syncytial virus). Description: BIAcore, immobilized F protein. (In general: SPR reads the build-up and loss of mass on a sensor chip optically.)

Some entries of the source have several records that differ or are many. They are shown here; other results are not. There may be further records. The records of an entry seem to repeat one measurement; one of them may be the mean.

Sequence of RSV F protein (immobilized on the BIAcore sensor chip) (respiratory syncytial virus) (P03420 26-524): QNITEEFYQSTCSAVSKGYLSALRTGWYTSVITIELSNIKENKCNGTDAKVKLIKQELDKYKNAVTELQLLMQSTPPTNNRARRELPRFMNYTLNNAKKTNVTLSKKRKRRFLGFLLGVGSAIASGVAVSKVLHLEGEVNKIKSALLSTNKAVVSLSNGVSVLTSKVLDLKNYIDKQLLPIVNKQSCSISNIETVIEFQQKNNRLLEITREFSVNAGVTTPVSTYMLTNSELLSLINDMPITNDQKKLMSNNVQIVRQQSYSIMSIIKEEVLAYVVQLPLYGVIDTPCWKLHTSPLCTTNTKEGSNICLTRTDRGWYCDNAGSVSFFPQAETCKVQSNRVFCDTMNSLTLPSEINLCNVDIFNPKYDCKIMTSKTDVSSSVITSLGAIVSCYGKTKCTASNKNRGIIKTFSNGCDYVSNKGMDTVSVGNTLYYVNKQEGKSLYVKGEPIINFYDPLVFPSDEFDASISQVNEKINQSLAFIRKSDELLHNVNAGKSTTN

B1: L1-7E5 (Fab fragment) (Fab, V domains shown)
VH: QVTLRESGPALVKPTQTLTLTCTFSGFSLSTAGMSVGWIRQPPGKALEWLADIWWDDKKDYNPSLKSRLTISKDTSKNQVVLKVTNMDPADTATYYCARDMITNFYFDVWGAGTTVTVSS
VL: DIQMTQSPSTLSASVGDRVTITCSASSSVGYMHWYQQKPGKAPKLLIYDTFRLASGVPSRFSGSGSGTEFTLTISSLQPDDFATYYCFQGSGYPFTFGGGTKLEIK
As to B1, the kon was 329000, 357000, 405000, 335000, 426000 M⁻¹ s⁻¹ [lines of one column].

B2: L2-15B10 (Fab fragment) (Fab, V domains shown)
VH: QVTLRESGPALVKPTQTLTLTCTFSGFSLSTAGMSVGWIRQPPGKALEWLADIWWDDKKDYNPSLKSRLTISKDTSKNQVVLKVTNMDPADTATYYCARDMITNFYFDVWGAGTTVTVSS
VL: DIQMTQSPSTLSASVGDRVTITCSASSSVGYMHWYQQKPGKAPKLLIYDTFRLASGVPSRFSGSGSGTEFTLTISSLQPDDFATYYCFQGSGYPFTFGGGTKLEIK
For B2, the koff is 0.000134 s⁻¹, 0.000416 s⁻¹, 0.00027 s⁻¹ [one cell].

The term kon denotes a measure of how fast the partners come together. Lower therefore signals slow association. As a reminder, the koff is the first-order rate constant of dissociation. Read a low koff as slow dissociation.
